Assay results as given in ChEMBL document CHEMBL4888484, “Replenishing the malaria drug discovery pipeline: Screening and hit evaluation of the MMV Hit Generation Library 1 (HGL1) against asexual blood stage Plasmodium falciparum ,using a nano luciferase reporter read-out” (2022).
The whole screen tested about 150,000 compounds, of which about 540 (0.36%) showed an effect of 50% or more. Some of the results follow.

system: Plasmodium falciparum; assay: Primary screen in NF54 nanoGlo assay, in single point, at 2uM, 72h; a lower Z score goes with more inhibition; type: functional, Erythrocyte; conditions: timepoint 72 hour

SMILES | % Inhibition [%] | Z score
CCn1nc(CC(C)C)cc1C(=O)N1CCc2ncccc2C1 | -7 | 1.05
O=C(c1ccc(NCCc2ccccn2)cc1)N1CC[C@H](CCO)C1 | 1 | -0.1
Cc1ccc(NS(=O)(=O)c2c(C)[nH]c(C)c2-c2nnc(C3CCC3)o2)c(C)c1 | -15 | 2.95
N#CC1(c2nc3ccccc3[nH]2)Cc2c(F)cccc2N2CCCC21 (stereo not drawn) | -9 | 1.06
CO[C@H]1[C@H](NC(=O)c2ccncc2)c2ccccc2C12CCN(C(=O)Cc1c(F)cccc1F)CC2 | -5 | 0.98
CC(C)[C@@H]1CCCCN1C(=O)CCc1ccccn1 | -12 | 1.77
Cc1ccc(OCc2ccc(C(=O)N[C@H]3CCc4c(nc(C)n4CCO)C3)o2)c(C)c1 | 6 | -0.66
Cc1nc(C2CC2)nc(N2CCN(C(=O)N(C)C)CC2)c1Cc1ccccc1F | 34 | -4.29
Cc1ccccc1N(C(=O)[C@H]1CCOC1)C(C)C | -14 | 2.17
O=C(COc1cccc(N2C(=O)C3C4CCC(C4)C3C2=O)c1)c1ccccc1 (stereo not drawn) | -13 | 2.01
COc1ccc(N2CCN(c3ccc(OC)cc3)C2c2ccco2)cc1 | -14 | 1.95
O=C(CCc1nc(-c2ncccn2)no1)N(C1CCC1)C1CCC1 | 2 | -0.28
O=C(Nc1ccc(Br)cc1)C1CCN(c2cc(C(F)(F)F)ncn2)CC1 | -6 | 0.67
O=C(Nc1ccc(N2CCN(C(=O)c3cccc(F)c3)CC2)nc1)c1ccc(F)cc1F | -14 | 2.61
CCCN(C(=O)c1n[nH]c(C)c1C)C1CCN(c2cc(C)nc(C)n2)CC1 | 7 | -0.86
O=c1[nH]nc(CN(CCCN2CCOCC2)c2ccccc2)s1 | -11 | 1.38
CC(C)(C)O[C@@H](C(=O)N1CCc2cnccc21)c1ccccc1 | -6 | 0.53
N#Cc1cccc(S(=O)(=O)Nc2ccccc2N2CCOC2=O)c1 | 1 | -0.17
CCOc1ccc(-n2c(CN3CCN(C(=O)Nc4cccc(OC)c4)CC3)nc3cccnc32)cc1 | -4 | 0.47
COCCCNC(=O)[C@H]1CCCN(C(=O)c2nnc(C(=O)Nc3ccccc3)s2)C1 | -5 | 0.48
O=C1CN(C(=O)c2ccc(S(=O)(=O)N3CCCC3)cc2)c2ccccc2N1 | -8 | 1.06

SMILES | % Inhibition [%] | Z score
COC[C@@H](O)CN(Cc1ccc2c(c1)OCO2)Cc1c(-c2ccccc2)noc1N1CCCCC1 | -7 | 0.89
C[C@@H](C(=O)O)N1CCc2cc(-c3ccccc3)oc2C1 | -8 | 0.9
CC1(C)CC[C@@H](c2nc(-c3cnc(C4CC4)nc3N)no2)O1 | 0 | -0.04
Cn1ccnc1CN(CCO)C(=O)CCc1cn2ccccc2n1 | -16 | 3.39
Cc1cc(C)nc(NCCc2ncccc2C)n1 | -3 | 0.49
Cc1cccc(NC(=O)CN2CCN(c3ccnc4nncn34)CC2)c1C | 20 | -2.52
Cc1ccccc1CC(=O)N1CCC(C2(c3cccnc3)NC(=O)N(CC3CCCO3)C2=O)CC1 (stereo not drawn) | -13 | 1.69
O=C(Nc1ccc(Br)cc1F)c1cccnc1O[C@H]1CCOC1 | 3 | -0.5
COc1cccc(CNC(=O)CCn2cnc3c(-c4ccc(C)cc4)noc3c2=O)c1 | 4 | -0.66
CC1CCN(Cc2nnnn2CC(=O)N2CCN(Cc3nccn3C)CC2)CC1 | -12 | 1.14
CCC[C@H](C)NC(=O)Cn1cc(C(F)(F)F)ccc1=O | 3 | -0.58
Cc1cc(C)n(CCCS(=O)(=O)N(C)C)n1 | -8 | 1.4
CC1CCCCN1C(=O)N[C@@H]1COC[C@@H]1n1cc(CO)nn1 (stereo partly drawn) | -4 | 0.64
O=C(COc1ccccc1F)Nc1ccc2c(c1)CCC(=O)N2 | -10 | 1.76
Cc1cc(C(=O)NCCN(C)S(C)(=O)=O)nc(C)n1 | 0 | 0.02
CCOC(=O)[C@H]1CCCN(C(=O)Cn2cc(NC(=O)c3ccccc3F)cn2)C1 | -8 | 1.15
CCn1c(=O)c(-c2noc(C(=O)N3CCN(C4CCCCC4)CC3)n2)nn(-c2ccc(C)cc2)c1=O | 7 | -1.25
COC(C)(C)C(=O)N1CCC(CO)(CCCc2ccccc2)CC1 | -6 | 0.81
O[C@@H]1COC2(CCN(Cc3ccc4c(c3)OCCO4)CC2)C1 | -3 | 0.58
CN(C[C@H]1COc2ccccc2O1)C(=O)c1ccc(Cl)o1 | -3 | 0.36
CCc1sc(C(=O)N(C)CC(N)=O)cc1C | -2 | 0.23

SMILES | % Inhibition [%] | Z score
CCCc1cc(C(=O)OCC)nn1C1CCN(S(=O)(=O)c2ccccc2C#N)CC1 | -9 | 1
O=C(CNc1ccc(Cl)cc1)N1CCC[C@H]1c1ccc2c(c1)OCCCO2 | -10 | 1.13
CC(=O)N1CCc2cccc(NC(=O)N(C)C3CCN(C)CC3C)c21 (stereo not drawn) | 0 | -0.01
CC(C)Cc1nc2nccc(-c3ccc4c(c3)OCCCO4)n2n1 | -13 | 2.38
Cc1[nH]c(-c2ncccn2)nc(=O)c1CC(=O)NC1CCCCC1C (stereo not drawn) | -2 | 0.16
O=C(O)C1CC2CCCCC2N1CC(=O)N1CCc2ccccc2C1 (stereo not drawn) | -4 | 0.65
CCN1CCC[C@H](NC(=O)c2cc(C)n(C)c2C)C1 | -13 | 1.66
CCOc1ccnc(NC2(CN3CCCCC3)CC2)n1 | -11 | 1.74
Cn1cc(S(=O)(=O)NCc2cscn2)cn1 | -4 | 0.56
CN(Cc1cc(-c2ccccc2)n[nH]1)C(=O)Cn1nnnc1N | -8 | 0.82
CCC(C)(C)NC(=O)[C@H](C)S(=O)(=O)c1cccc(Cl)c1 | -3 | 0.69
O=C(Cc1cccc2ccccc12)N1CCC(c2ccsc2)CC1 | -12 | 1.76
CCOc1cc(C(=O)N2C3CCC2CC(CC(F)F)C3)on1 (stereo not drawn) | -10 | 1.2
C#Cc1ccc(C(=O)N[C@H]2CCc3c(nc(C)n3CCO)C2)cc1 | 15 | -1.9
CC[C@@H](C(=O)N(C)Cc1cn(CC)nc1C)n1cccn1 | -8 | 1.18
Cc1n[nH]c(C)c1CCC(=O)N1CC[C@@](O)(C2CCOCC2)[C@H](C)C1 | -3 | 0.48
CN([C@H]1CCN(c2ccccc2)C1=O)S(C)(=O)=O | -3 | 0.34
Cc1ccc(OCCC(=O)N2CCC(c3ccnnc3)CC2)cc1C | -7 | 0.95
COc1ccc(CNC(=O)c2cc(-c3ccc(OC)cc3)nc3n[nH]c(-c4ccc(F)cc4)c23)cc1 | -7 | 0.68
COc1ccc(Cc2nc(-c3ccc4c(c3)OCO4)n(CCO)n2)cc1 | -22 | 2.11
COC(=O)c1ccc(C(=O)N2CC[C@H](n3c(C)nc4ccccc43)C2)cc1 | -31 | 3.93

SMILES | % Inhibition [%] | Z score
NC(=O)[C@@H]1C[C@H](Oc2ccccc2)CN1Cc1cccnc1 | -14 | 1.78
CN1CC[C@H](C(=O)N(Cc2ccc3c(c2)OCO3)C2(C)CCCC2)CC1=O | -15 | 2.91
CCCC1(CCC)CCCN1C(=O)CCc1ccnc(C)n1 | -15 | 1.59
Cc1nccn1COC(=O)OC1CCCCC1 | -3 | 0.41
CC1C(O)CC2NC1c1ccccc1OCCOCCOc1ccccc12 (stereo not drawn) | -4 | 0.61
Cn1c(CCNC(=O)Nc2nccs2)nc2c(F)cccc21 | -7 | 0.99
CCn1cc(CN2CC[C@H]3C(=O)NCCCCCCN(Cc4ccncc4)[C@@H]3C2)c(C)n1 | 2 | -0.2
O=C(Nc1ccccc1OCCc1ccccn1)N1CCC(F)(F)CC1 | -6 | 1.16
COCc1nc(CCNC(=O)CC(C)C)no1 | 1 | -0.11
COc1cccc(CO[C@@H]2CN(C(=O)CC3CCCC3)CC(=O)N(Cc3ccccn3)C2)c1 | -5 | 0.85
Cc1ccc2ncc(CNc3nc(C4CC4)no3)n2c1 | 2 | -0.39
Cc1cnc(N2CCCC[C@H]2c2ncccn2)nc1 | -9 | 1.79
CN(C[C@@H]1OCCc2ccccc21)C(=O)CCc1ncccn1 | -10 | 1.38
COc1cc(NC(=O)N2CCN(c3c(F)cccc3F)CC2)ccn1 | -14 | 2.26
CN1CC[C@H]2CC[C@@H](C1)N2C(=O)Nc1cccc(Cl)c1 | 7 | -1.15
CS(=O)(=O)CC1(CC(=O)NCC2(Cc3ccccc3)CCC2)CC1 | -1 | 0.16
CC1(C)CC[C@H](CCNC(=O)Cn2ncc3cccnc32)OC1 | -2 | 0.44
CCc1onc(C)c1C(=O)Nc1nnc(C(C)C)[nH]1 | -8 | 0.77
CCOC(=O)C(C)C(C)NC(=O)c1cccc(O)c1OC(F)(F)F (stereo not drawn) | 0 | 0.04
COCc1cc(=O)n(CC(=O)Nc2ccccc2OC)c(N2CCOCC2)n1 | -9 | 0.82
Cc1ccc2c(c1)N(CC(=O)N[C@@H](C)CCc1ccccc1)C=NS2(=O)=O | -14 | 1.66
